{"source": "PubChem BioAssay AID1347165", "about": "(National Center for Advancing Translational Sciences (NCATS), 2019)", "note": "The campaign covered roughly 220,000 compounds. About 5,700 (2.6%) were called active. Inconclusive means that the source gave no clear call. Such entries were picked first, then a sample of the others. The call rests on the fitted dose curve; in most records, active means well fitted inhibition curve with a large enough effect; inconclusive means small, poorly fitted or top-dose-only effect; inactive means no such curve, though single readings can be large or run the other way. A potency beside an inconclusive call is a rough fit, not a confirmed value. Potency means the concentration at half of the fitted maximal effect; tags describe the fitted curve by direction and shape.", "data": [{"target": "Lysine-specific demethylase 5B (Homo sapiens) (UniProt Q9UGL1)", "sequence (Q9UGL1 whole entry, looked up)": "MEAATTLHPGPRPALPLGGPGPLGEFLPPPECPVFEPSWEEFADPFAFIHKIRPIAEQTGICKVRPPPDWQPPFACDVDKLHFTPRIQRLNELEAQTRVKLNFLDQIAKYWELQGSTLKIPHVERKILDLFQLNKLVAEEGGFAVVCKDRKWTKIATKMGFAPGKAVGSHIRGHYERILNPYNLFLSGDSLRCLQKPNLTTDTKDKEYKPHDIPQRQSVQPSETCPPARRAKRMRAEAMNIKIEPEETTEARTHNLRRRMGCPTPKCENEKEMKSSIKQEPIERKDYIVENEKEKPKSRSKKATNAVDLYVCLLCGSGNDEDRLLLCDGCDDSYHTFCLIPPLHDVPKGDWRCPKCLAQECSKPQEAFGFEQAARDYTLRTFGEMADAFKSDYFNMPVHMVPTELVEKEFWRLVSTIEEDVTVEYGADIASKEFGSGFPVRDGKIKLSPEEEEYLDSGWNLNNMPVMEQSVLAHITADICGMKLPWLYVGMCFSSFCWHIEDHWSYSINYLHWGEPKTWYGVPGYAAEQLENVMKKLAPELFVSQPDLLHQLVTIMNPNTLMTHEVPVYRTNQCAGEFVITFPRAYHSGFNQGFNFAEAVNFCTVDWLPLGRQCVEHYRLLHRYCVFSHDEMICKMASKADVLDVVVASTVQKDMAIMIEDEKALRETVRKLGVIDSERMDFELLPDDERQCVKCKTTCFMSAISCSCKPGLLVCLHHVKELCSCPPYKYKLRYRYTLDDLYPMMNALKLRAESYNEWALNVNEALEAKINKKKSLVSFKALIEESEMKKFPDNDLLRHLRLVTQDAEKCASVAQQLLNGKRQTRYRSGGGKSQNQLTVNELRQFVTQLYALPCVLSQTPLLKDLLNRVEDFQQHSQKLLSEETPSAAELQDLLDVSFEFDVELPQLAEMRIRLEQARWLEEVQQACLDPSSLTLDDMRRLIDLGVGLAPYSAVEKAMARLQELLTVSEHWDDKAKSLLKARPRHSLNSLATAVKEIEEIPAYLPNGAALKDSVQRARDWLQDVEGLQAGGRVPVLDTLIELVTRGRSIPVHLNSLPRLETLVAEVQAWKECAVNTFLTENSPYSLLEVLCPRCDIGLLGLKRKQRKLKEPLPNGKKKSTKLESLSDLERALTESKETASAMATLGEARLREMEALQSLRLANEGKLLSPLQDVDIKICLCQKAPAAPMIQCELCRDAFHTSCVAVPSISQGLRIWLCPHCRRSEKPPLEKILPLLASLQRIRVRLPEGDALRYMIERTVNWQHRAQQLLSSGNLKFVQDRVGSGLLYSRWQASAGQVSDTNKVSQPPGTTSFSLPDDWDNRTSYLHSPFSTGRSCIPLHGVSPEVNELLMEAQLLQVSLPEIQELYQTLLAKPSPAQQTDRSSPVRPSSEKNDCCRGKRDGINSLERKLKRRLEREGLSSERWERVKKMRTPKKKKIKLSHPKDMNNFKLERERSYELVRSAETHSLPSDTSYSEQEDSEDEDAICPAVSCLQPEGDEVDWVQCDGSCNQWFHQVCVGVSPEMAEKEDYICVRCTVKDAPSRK", "assay": "Primary screen for KDM5B Histone Demethylases FDH-coupled qHTS; further: nearly all actives have a fitted effect of over 70% in size; on activity change, negative = inhibition: 0% is about no effect", "conditions": "FDH-coupled NADH fluorescence (FDH is formaldehyde dehydrogenase); activity change, negative = inhibition: at 57.7 µM (top of the series) unless noted", "in_short": "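Measured: NADH fluorescence change, 30 min, RT. System: KDM5BΔAP 200 nM final, H3K4me3 peptide, α-KG, Fe(II), ascorbate, NAD⁺ plus FDH, pH 7.5 HEPES. Compounds: titrated, 10 min pre-incubation with enzyme.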", "values": [{"smiles": "C/C(=N\\NC(=O)Cn1ccc(C(F)(F)F)n1)c1ccc(N2CCOCC2)cc1", "Potency": "inconclusive: 28.2 µM [inhibitor, partial curve, poor fit]"}, {"smiles": "O=C(O)C(Cl)C12CC3CC(C1)CC(C(Cl)C(=O)O)(C3)C2", "note": "(stereo unspecified)", "activity change, negative = inhibition": "inactive: -0.236%"}, {"smiles": "Cc1ccc(-c2cc(C(=O)Nc3ccccn3)c3ccccc3n2)o1", "Potency": "inconclusive: 25.1 µM [inhibitor, partial curve, poor fit]"}, {"smiles": "COc1ccccc1NC(=O)CSc1ncc2c(n1)-c1cc(Cl)ccc1N(C)S2(=O)=O", "Potency": "inconclusive: 56.2 µM [inhibitor, single point]"}, {"smiles": "Cc1nccc(N2CCC(Oc3cnc4c(ccn4CCN[S+](C)(=O)[O-])c3)CC2)n1", "Potency": "inconclusive: 39.8 µM [inhibitor, partial curve, poor fit]"}, {"smiles": "Cc1nc(N2CCCC2)ncc1C(=O)Nc1ccccc1", "Potency": "inconclusive: 14.1 µM [inhibitor, partial curve, poor fit]"}, {"smiles": "COc1ccc(-n2nc3n(c2=O)CCN(Cc2cccn2C)C3)cc1", "Potency": "inconclusive: 56.2 µM [inhibitor, partial curve]"}, {"smiles": "O=C1NCCCN1C1CCN(Cc2cccc(OC(F)(F)F)c2)CC1", "activity change, negative = inhibition": "inactive: 8.22% [at 86.2 µM]"}, {"smiles": "O=C(NCc1cccnc1)c1ccc(-c2ccccc2)cc1", "activity change, negative = inhibition": "inactive: 27%"}, {"smiles": "COc1ccccc1N1CCN(CC[C@H]2CN(C(=O)C3CC3)CC[C@H]2CC(=O)O)CC1", "activity change, negative = inhibition": "inactive: -6.11% [at 86.2 µM]"}, {"smiles": "Cc1cc(O)c(C(c2cccc(Cl)c2)N2CCN(c3ccccc3)CC2)c(=O)n1Cc1ccco1", "note": "(stereo unspecified)", "Potency": "inconclusive: 35.5 µM [inhibitor, single point]"}, {"smiles": "COC(=O)c1oc(CN2CC(C)OC(C)C2)cc1C", "note": "(stereo unspecified)", "activity change, negative = inhibition": "inactive: -0.178%"}, {"smiles": "Cc1cccnc1CNC[C@H]1O[C@@H]2C[C@@H](CC(=O)NC(C)C)O[C@@H]2[C@@H]1O", "Potency": "inconclusive: 28.2 µM [inhibitor, single point]"}, {"smiles": "O=S1(=O)CCN(c2cccc(-c3nc(C4CCOC4)no3)c2)CC1", "note": "(stereo unspecified)", "Potency": "inconclusive: 25.1 µM [inhibitor, partial curve, poor fit]"}, {"smiles": "C=CCn1c(SCc2ccc(F)cc2)nnc1-c1sc2nc(C)cc(C)c2c1N", "Potency": "inconclusive: 31.6 µM [inhibitor, partial curve, poor fit]"}, {"smiles": "COc1ccc(-c2ccc3c(n2)CNC(=O)CO3)cc1F", "Potency": "inconclusive: 14.1 µM [inhibitor, single point]"}, {"smiles": "CN(C)c1ccc(CNc2nc(-c3ccco3)nn2C(=O)c2cccc([N+](=O)[O-])c2)cc1", "Potency": "inconclusive: 15.8 µM [inhibitor, partial curve, poor fit]"}, {"smiles": "COc1cc(Cl)cc(/C=C/c2ccc3cccc(O)c3n2)c1OC", "Potency": "inconclusive: 11.2 µM [inhibitor, partial curve, poor fit]"}, {"smiles": "O=C(Nc1cnc(-c2ccc(Cl)cc2)nc1)c1cccs1", "Potency": "inconclusive: 11.2 µM [inhibitor, partial curve, poor fit]"}, {"smiles": "O=C/C=C/c1cccc([N+](=O)[O-])c1", "Potency": "inconclusive: 22.4 µM [inhibitor, partial curve, poor fit]"}, {"smiles": "O=[N+]([O-])c1ccccc1CN1C[C@H](O)C[C@H]1c1nc(Cc2ccc(F)cc2Cl)no1", "Potency": "inconclusive: 39.8 µM [inhibitor, single point]"}, {"smiles": "COc1ccc(C(CC(=O)Nc2cccc(-c3ccno3)c2)n2cccc2)cc1", "note": "(stereo unspecified)", "activity change, negative = inhibition": "inactive: -0.383%"}, {"smiles": "CCNC(=O)[C@@H]1C[C@@H](NC(=O)c2csc(C)c2CC)CN1C1CCCC1", "Potency": "inconclusive: 14.1 µM [inhibitor, partial curve, poor fit]"}, {"smiles": "CCCn1ccnc1CN1CCCC12CCN(c1ccc(C(F)(F)F)cn1)CC2", "Potency": "inconclusive: 31.6 µM [inhibitor, single point]"}, {"smiles": "CC1(C(=O)O)CCN(C(=O)c2ccc(C(F)(F)F)cc2)CC1", "activity change, negative = inhibition": "inactive: -14.7% [at 149 µM]"}, {"smiles": "Cc1nn(-c2ccc(C(=O)NC3CCCC3)cc2)c(NC(=O)C2CC2)c1-c1ccccc1", "activity change, negative = inhibition": "inactive: 7.01%"}, {"smiles": "CCN1CCCC1CNC(=O)CC(C)C", "note": "(stereo unspecified)", "Potency": "inconclusive: 20 µM [inhibitor, partial curve, poor fit]"}, {"smiles": "COc1ccc2c(C)c(CC(=O)N3CCN(C(=O)C4COc5ccccc5O4)CC3)c(=O)oc2c1", "note": "(stereo unspecified)", "Potency": "inconclusive: 20 µM [inhibitor, partial curve, poor fit]"}, {"smiles": "Cc1nc(C)c(CC(=O)N2CCCC(C)(Cc3ccc4c(c3)OCO4)C2)s1", "note": "(stereo unspecified)", "activity change, negative = inhibition": "inactive: 23.1%"}, {"smiles": "Cc1ccc(CN2C(=O)[C@@H]3C[C@@H](O)CN3C3(CN(Cc4ccncc4)C3)C2=O)o1", "Potency": "inconclusive: 28.2 µM [inhibitor, partial curve, poor fit]"}, {"smiles": "Cc1ccc(C(=O)N2CCCC3(C2)C(=NC2CCCCC2)NC(=O)N3c2cccnc2)cc1", "note": "(stereo unspecified)", "activity change, negative = inhibition": "inactive: -8.74% [at 115 µM]"}, {"smiles": "COCc1ccc2c(c1)c(OC(C)(C)C(=O)NCC1CCOCC1)nn2CCC(C)C", "Potency": "active: 35.5 µM"}, {"smiles": "COCC1CN(C)CC12CCN(C(=O)CCc1cccc(OC)c1)CC2", "note": "(stereo unspecified)", "Potency": "inconclusive: 28.2 µM [inhibitor, single point]"}, {"smiles": "Cc1cc(C(=O)NCCc2ccccc2)c2cccc(C)c2n1", "Potency": "inconclusive: 10 µM [inhibitor, partial curve, poor fit]"}, {"smiles": "CC(C)CCNC(=O)c1cccc(C#N)c1", "activity change, negative = inhibition": "inactive: -2.33%"}, {"smiles": "O=C(NCc1ccc(CN2CCCC2)cc1)C1CCCCC1", "activity change, negative = inhibition": "inactive: -22.1%"}, {"smiles": "CN(C)C(=O)CN1CCN(C(C(=O)O)c2cn(C)c3cc(C(=O)O)ccc23)CC1", "note": "(stereo unspecified)", "activity change, negative = inhibition": "inactive: 119%"}, {"smiles": "Cc1cccc(Nc2nnc(SC(C)C#N)s2)c1C", "note": "(stereo unspecified)", "activity change, negative = inhibition": "inactive: -8.5%"}, {"smiles": "COc1cc(OC)cc(-c2nc3ccc(-c4ccc(OC)c(OC)c4OC)cc3o2)c1", "Potency": "active: 25.1 µM"}, {"smiles": "O=C1COc2ccc(-c3ccsc3)nc2CN1Cc1ccccc1", "Potency": "inconclusive: 39.8 µM [inhibitor, partial curve, poor fit]"}, {"smiles": "CN(C)c1cccc(NC(=O)Cc2c[nH]c3ncc(-c4ccccc4)cc23)c1", "Potency": "inconclusive: 35.5 µM [inhibitor, single point]"}, {"smiles": "COc1ccc2nc(C)c(C(=O)NC3CCCCCC3)cc2c1", "Potency": "inconclusive: 39.8 µM [inhibitor, single point]"}, {"smiles": "Cc1oc(-c2ccc(C(=O)N3CCN(C)CC3)cc2)nc1CN1CCc2ccccc21", "activity change, negative = inhibition": "inactive: 1.68%"}, {"smiles": "O=C1NCCCCCCN(Cc2ccncc2)[C@@H]2CN(C(=O)C3CCOCC3)CC[C@@H]12", "Potency": "inconclusive: 35.5 µM [inhibitor, single point]"}, {"smiles": "COc1cccc(CSc2nc3n(n2)C(c2ccccc2C)C(C(=O)Nc2ccccc2OC)=C(C)N3)c1", "note": "(stereo unspecified)", "Potency": "inconclusive: 2 µM [inhibitor, full curve, poor fit]"}, {"smiles": "S=C1NC2(CCCCC2)N=C1c1ccc(Cl)cc1", "activity change, negative = inhibition": "inactive: 5.35%"}, {"smiles": "Cc1cnc(C(=O)N2CCC(c3nnc(CN4CCCC4)n3C3CC3)CC2)cn1", "Potency": "inconclusive: 15.8 µM [inhibitor, partial curve, poor fit]"}, {"smiles": "O=C(CSc1oc(-c2ccco2)nc1S(=O)(=O)c1ccc(Cl)cc1)c1ccccc1", "Potency": "inconclusive: 25.1 µM [inhibitor, partial curve, poor fit]"}, {"smiles": "CC(=O)N[C@H]1CN(c2cncc(C(=O)N3CCCC3)n2)C[C@@H]1C1CC1", "Potency": "active: 28.2 µM"}, {"smiles": "Cc1cc(=O)oc2cc(OCC(=O)NC3CCCCC3)c(Cl)cc12", "Potency": "inconclusive: 35.5 µM [inhibitor, single point]"}, {"smiles": "CCC(C(=O)NCCc1ccc(Cl)cc1)n1nc(C)c2c(C)n(-c3ccccc3)nc2c1=O", "note": "(stereo unspecified)", "Potency": "inconclusive: 28.2 µM [inhibitor, partial curve, poor fit]"}, {"smiles": "O=C(Nc1cccc(OC(F)(F)F)c1)[C@@H]1COCC(=O)N1Cc1ccc(F)cc1", "activity change, negative = inhibition": "inactive: 16.4%"}, {"smiles": "Cc1cnc(C(=O)NC2C[C@H]3CC[C@@H](C2)N3C(=O)Cc2cccc(F)c2)cn1", "note": "(stereo partly specified)", "activity change, negative = inhibition": "inactive: -20.5%"}, {"smiles": "Oc1ccccc1CN1CCOC[C@H]1c1ncc(-c2cccc(Cl)c2)[nH]1", "activity change, negative = inhibition": "inactive: 0.608% [at 86.2 µM]"}, {"smiles": "COc1ccc(-c2cc(N3CCCN(C(=O)Cc4ccc(Cl)cc4)CC3)n[nH]2)cc1", "Potency": "inconclusive: 31.6 µM [inhibitor, single point]"}, {"smiles": "Cc1cc(C[C@@H]2COC[C@@H]2NC(=O)c2cc(C)oc2-c2ccccc2)on1", "Potency": "active: 28.2 µM"}, {"smiles": "N#Cc1ccc(C(=O)N2CCC3(CC2)NC(=O)N(Cc2cccc(Cl)c2)C3=O)cc1", "Potency": "inconclusive: 39.8 µM [inhibitor, single point]"}, {"smiles": "O=C(Nc1ccc(Cl)cc1Cl)c1cn2c(n1)CN(C(=O)c1ccccc1F)CC2", "Potency": "inconclusive: 50.1 µM [inhibitor, partial curve, poor fit]"}, {"smiles": "Cc1cccc(Cn2c(C)c(C)c3cc(C(=O)NCc4ccc(C)o4)ccc32)c1", "Potency": "inconclusive: 17.8 µM [inhibitor, partial curve, poor fit]"}, {"smiles": "CCOc1ccc(CCNC(=O)c2cc3c(-c4cccc(OC)c4)nn(C)c3s2)cc1OCC", "Potency": "inconclusive: 35.5 µM [inhibitor, partial curve, poor fit]"}, {"smiles": "COc1ccc(-c2cc3c(=O)n(CCNC(=O)c4ccc(C)c(F)c4)ccn3n2)cc1", "Potency": "inconclusive: 39.8 µM [inhibitor, single point]"}, {"smiles": "CCOC(=O)c1nc(Nc2cccc(C)c2)c2ccccc2n1", "Potency": "inconclusive: 39.8 µM [inhibitor, single point]"}, {"smiles": "COC1C(=O)N(c2cccc(F)c2)C12CCN(S(=O)(=O)Cc1ccccc1F)CC2", "note": "(stereo unspecified)", "Potency": "inconclusive: 31.6 µM [inhibitor, single point]"}, {"smiles": "COc1ccccc1OCCNC(=O)CCc1cc2cc(C)ccc2[nH]c1=O", "Potency": "inconclusive: 35.5 µM [inhibitor, partial curve, poor fit]"}, {"smiles": "CC(Sc1nnc(-c2ccccc2F)n1C1CC1)c1ccc(F)cc1", "note": "(stereo unspecified)", "activity change, negative = inhibition": "inactive: -0.861%"}, {"smiles": "O=C(/C=C/C1=Cc2ccccc2OC1)c1cccc(O)c1", "Potency": "inconclusive: 39.8 µM [inhibitor, single point]"}]}]}
